Laboratory results from PMC4336329 (PLoS ONE, 2015).
The campaign covered roughly 310,000 compounds. About 14,000 (4.5%) showed an effect of 50% or more. Effects have a minus sign here. This is one part of the list.

What follows are molecules tested against human ether-à-go-go-related gene (hERG) potassium channel (human, UniProt Q12809) (assay: primary screen, population patch clamp on CHO cells stably expressing hERG).
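Also: peak tail current of the secondary pulse compared with the same well before compound.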

Sequence of human ether-à-go-go-related gene (hERG) potassium channel (Q12809 whole entry, looked up): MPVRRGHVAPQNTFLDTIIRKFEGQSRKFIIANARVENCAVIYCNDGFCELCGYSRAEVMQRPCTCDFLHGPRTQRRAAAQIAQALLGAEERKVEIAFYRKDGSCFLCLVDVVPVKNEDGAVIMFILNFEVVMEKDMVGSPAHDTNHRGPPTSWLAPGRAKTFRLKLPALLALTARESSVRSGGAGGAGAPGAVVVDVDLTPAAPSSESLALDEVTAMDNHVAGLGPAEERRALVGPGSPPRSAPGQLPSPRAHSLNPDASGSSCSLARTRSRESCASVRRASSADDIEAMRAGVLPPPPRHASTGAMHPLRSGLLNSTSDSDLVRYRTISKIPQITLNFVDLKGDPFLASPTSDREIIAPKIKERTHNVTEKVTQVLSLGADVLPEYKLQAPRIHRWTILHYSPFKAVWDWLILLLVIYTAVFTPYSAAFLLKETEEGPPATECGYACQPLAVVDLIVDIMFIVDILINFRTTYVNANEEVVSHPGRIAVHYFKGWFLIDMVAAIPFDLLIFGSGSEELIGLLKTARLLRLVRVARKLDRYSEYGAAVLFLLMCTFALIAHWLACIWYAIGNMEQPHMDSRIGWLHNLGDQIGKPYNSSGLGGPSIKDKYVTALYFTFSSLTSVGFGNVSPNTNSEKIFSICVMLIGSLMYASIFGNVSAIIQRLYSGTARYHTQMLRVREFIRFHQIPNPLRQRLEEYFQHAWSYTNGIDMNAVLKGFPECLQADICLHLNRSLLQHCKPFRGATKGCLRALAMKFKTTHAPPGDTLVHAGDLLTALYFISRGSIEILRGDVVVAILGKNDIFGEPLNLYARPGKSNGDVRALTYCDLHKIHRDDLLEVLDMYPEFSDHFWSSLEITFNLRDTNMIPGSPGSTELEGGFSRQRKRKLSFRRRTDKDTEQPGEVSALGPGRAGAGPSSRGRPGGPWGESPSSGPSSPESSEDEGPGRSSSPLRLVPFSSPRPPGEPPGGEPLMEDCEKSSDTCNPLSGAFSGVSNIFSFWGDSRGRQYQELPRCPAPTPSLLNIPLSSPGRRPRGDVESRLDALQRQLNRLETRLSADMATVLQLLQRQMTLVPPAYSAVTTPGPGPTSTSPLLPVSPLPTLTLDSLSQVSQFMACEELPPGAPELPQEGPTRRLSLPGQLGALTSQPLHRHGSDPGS

SMILES | hERG current change (%, negative = inhibition) at 10uM [%]
CCOC(=O)C(=O)Nc1sc(C(=O)N2CCOCC2)c(C)c1C#N | 17.1
O=c1[nH]c(/C=C/c2ccc([N+](=O)[O-])cc2)c([N+](=O)[O-])c(=O)[nH]1 | 12.7
Cc1ccc(CN2CCSc3ccc(C(=O)N4CCOCC4)cc32)cc1 | -23.2
Cc1cccc(-c2cc3nc4c(c(N5CCC6(CC5)OCCO6)n3n2)CCCC4)c1 | 10.2
CCn1cc(C(=O)NCC(C)C)c(=O)c2cc(F)c(N3CCN(C)CC3)cc21 | 3.11
CCOc1ccc(NC(=O)c2ccccc2NC(=O)CN2CCN(C(C)=O)CC2)cc1 | -3.2
CCSc1cc(C)nc2c(-c3ccccc3)cnn12 | 5.27
CCOc1cccc(C(=O)NC(=S)Nc2ccc(N3CCN(CC)CC3)cc2)c1 | -72.1
COc1ccccc1N/C=C/C(=C(C#N)C#N)N(C)C | 7.51
CC1CCCN(C(=O)CSc2nnc(-c3cccs3)o2)C1 (centres unmarked) | -17.3
COCCn1c(C)cc2c(c1=O)C(c1ccco1)C(C#N)=C(N)O2 (centres unmarked) | 12.7
CCCCn1c(O)c(C(C)=Nc2ccc3c(c2)CCC3)c(=O)[nH]c1=O | 7.52
NC(=O)CCC(NS(=O)(=O)c1ccc(Cl)cc1)C(=O)NCC1CCCCC1 (centres unmarked) | 16.8
CCOC(=O)N1CCN(C(=S)NC(=O)C2CCCC2)CC1 | -23.3
Cc1ccc(N2C(=O)Nc3ccc(Br)cc3C2(O)C(=O)NCCCN(C)C)cc1C (centres unmarked) | -5.79
COc1ccc(OC)c2sc(NC(=O)c3ccc(S(=O)(=O)N(C)C)cc3)nc12 | 13.4
O=C(Cn1nc(Cc2cccnc2)c2ccccc2c1=O)NCC1CCCO1 (centres unmarked) | 9.7
CCSc1nnc(NC(=O)CC)s1 | 6.42
COc1cc(NC(=O)CSCC(=O)Nc2cccc(C(F)(F)F)c2)c(Cl)cc1Cl | -2.94
CCOC(=O)C1CCN(C(=O)CSCCSCC(=O)N2CCC(C(=O)OCC)CC2)CC1 | -14.3
CCCNC(=O)C(Cc1cccc(Cl)c1)NC(=O)c1ccccc1 (centres unmarked) | 17.7
CCOc1cc(/C=C2/C(=N)N3N=C(CC)SC3=NC2=O)ccc1OC(=O)c1ccco1 | -23.8

SMILES | hERG current change (%, negative = inhibition) at 10uM [%]
Cc1nnc(SC(C)C(=O)NC2CCCc3ccccc32)n1-c1ccccc1 (centres unmarked) | -2.12
O=C(CN1C(=O)c2ccccc2S1(=O)=O)c1ccc(O)c(O)c1 | 8.63
CC(C)CC(C(=O)OCC(=O)c1c(N)n(C)c(=O)n(C)c1=O)N1C(=O)C2CC=CCC2C1=O (centres unmarked) | -7.6
O=S(=O)(c1ccccc1)N1CCN(C(=S)NCCc2ccccc2)CC1 | 1.62
COCc1cc(C)nc(SCC[N+](C)(C)CC(=O)Nc2cccc(C(F)(F)F)c2)c1C#N.[Cl-] | 13.5
CCC(C(=O)N1CCN(c2ccccc2OC)CC1)c1ccccc1 (centres unmarked) | 9.01
COC(=O)[C@H](CCSC)NC(=O)NC1CCN(Cc2ccccc2)CC1 | -12.9
COc1ccccc1NC(=O)CN1C(=O)C(C)SC(C)C1=O (centres unmarked) | 31.8
C1CN(c2nc3nonc3nc2N2C[C@H]3CC[C@H]2C3)CCS1 | 4.87
CC(C)n1cc(CN2CCCC(C(=O)Nc3ccccc3Oc3cccnc3)C2)cn1 (centres unmarked) | -42.4
COCCNC(=O)c1csc(Nc2cccc3ccccc23)n1 | -35.9
Cc1cc2ccccc2c(=O)n1CC(=O)NCC(=O)N1CCCC1 | 0.34
CCCC1=[N+](CC(C)=O)CCn2c(C)ccc21.[Br-] | 20.1
Cn1c(SCC(=O)N2CCc3ccccc3C2)nnc1-c1cccs1 | -45.1
O=C(OC(C(=O)Nc1ccc(Cl)c(C(F)(F)F)c1)c1ccccc1)C1=COCCO1 (centres unmarked) | 19.1
CCN(Cc1ccncc1)C(=O)c1cc(COc2ccc(C)c(C)c2)on1 | -69.5
O=C(COc1ccccc1)N1CCN(S(=O)(=O)c2cccs2)CC1 | -31
COc1ccc(-n2c(O)c(C(C)=NC3CC3)c(=O)[nH]c2=O)cc1 | 8.08
COc1ccc([N+](=O)[O-])cc1NC(=O)Nc1ccccc1 | 10.3
Clc1ccc(OCc2nnc(-c3ccccc3Br)o2)c(Cl)c1 | 8.14
CCN1CCN(CCCNC(=O)c2ccccc2NC(=O)C2=C(C)OCCS2)CC1 | 1.11
O=C(CN1C(=O)COc2ccccc21)NCCN1CCC(Cc2ccccc2)CC1 | -56.6
